Hit rate of the full screen: of about 110,000 compounds, about 230 (0.21%) showed an effect of 50% or more. The list shows a part of the results.
Target: DPAP1 (Plasmodium falciparum, UniProt Q8IIJ9)
Experiment: primary screen, percent inhibition; read by cleavage of a fluorogenic dipeptide substrate; higher = more effect of the substance
Parameters: species or system P. falciparum D10 trophozoite lysates; single well
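Further: 30 min substrate incubation versus DMSO and 10 µM JCP410 controls.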

Chain of DPAP1 (Q8IIJ9 whole entry, looked up): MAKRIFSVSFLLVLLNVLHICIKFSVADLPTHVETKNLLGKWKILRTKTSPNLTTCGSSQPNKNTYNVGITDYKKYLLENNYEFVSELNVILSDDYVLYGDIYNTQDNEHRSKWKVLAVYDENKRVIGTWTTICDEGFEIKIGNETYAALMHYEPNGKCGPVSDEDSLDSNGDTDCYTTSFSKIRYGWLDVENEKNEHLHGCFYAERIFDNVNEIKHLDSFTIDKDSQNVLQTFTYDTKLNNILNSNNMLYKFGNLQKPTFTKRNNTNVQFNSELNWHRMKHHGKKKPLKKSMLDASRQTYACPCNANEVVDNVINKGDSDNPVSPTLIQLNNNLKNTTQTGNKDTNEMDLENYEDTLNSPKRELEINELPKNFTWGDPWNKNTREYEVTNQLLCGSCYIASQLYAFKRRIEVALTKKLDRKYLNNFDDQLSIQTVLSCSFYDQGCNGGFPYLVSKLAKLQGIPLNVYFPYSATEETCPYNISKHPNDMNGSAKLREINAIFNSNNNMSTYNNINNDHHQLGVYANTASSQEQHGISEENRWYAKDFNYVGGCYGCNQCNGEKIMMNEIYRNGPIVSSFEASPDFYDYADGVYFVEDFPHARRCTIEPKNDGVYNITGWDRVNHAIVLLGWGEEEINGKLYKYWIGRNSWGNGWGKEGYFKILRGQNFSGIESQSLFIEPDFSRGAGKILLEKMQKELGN

Going from `Cc1ccc(C2SCC(=O)N2c2cccc(Cl)c2)cc1` (centres unmarked) to `Clc1cccc(N2CCN(Cc3ccc(Br)cc3)CC2)c1`, the “% Inhibition @ 10 uM” value falls from -2.29% to -5.5%.

First: O=C1S/C(=C\c2ccco2)C(=O)N1Cc1ccccc1
Second: O=C1/C(=C/c2cccnc2)S/C(=N/Cc2ccccc2)N1Cc1ccccc1
The “% Inhibition @ 10 uM” value of the first is lower: -2.6% for the first, -0.339% for the second.

Going from `CCOC(=O)C1=C(N)Oc2[nH]nc(C)c2C1c1ccc(Cl)cc1Cl` (centres unmarked) to `Cc1cc(-c2n[nH]c3c2C(C(C)c2ccccc2)C(C#N)=C(N)O3)c(C)s1` (centres unmarked), the “% Inhibition @ 10 uM” value falls from 6.4% to -2.24%.

First: NC(=S)N/N=C/c1c[nH]c2ccccc12
Second: C/C(=N/N=C\c1cccc2ccccc12)c1nnn(-c2nonc2N)c1C
The “% Inhibition @ 10 uM” value of the first is higher: 5.98% for the first, 4.42% for the second.

Compared with `Nc1nonc1-n1nnc(C(=O)N2CCCCC2)c1-c1ccccc1`, `N#Cc1c(N)nc2c(c1-c1ccccc1)CCCCC2` is lower in “% Inhibition @ 10 uM” value: 5.98% for the first, -2.55% for the second.

First: CS(=O)(=O)c1ccc2nc(NC(=O)C3CCCO3)sc2c1 (centres unmarked)
Second: CCOC(=O)C1CCCN(Cc2ccc(Cl)c(Cl)c2)C1 (centres unmarked)
The “% Inhibition @ 10 uM” value of the first is lower: -4.75% for the first, -0.127% for the second.

First: Cc1[nH]nc2c1C1(CCN(C(=O)OC(C)(C)C)CC1)C(C#N)=C(N)O2
Second: Cc1ccc(-c2cc(C(C)(C)C)nc(N)c2C#N)cc1
The “% Inhibition @ 10 uM” value of the first is lower: 2.45% for the first, 2.65% for the second.

Going from `N#Cc1cc(-c2ccccc2)c(Cc2ccccc2)nc1S` to `O=C(Cc1ccccc1)Nc1ccc2oc(-c3ccccc3F)nc2c1`, the “% Inhibition @ 10 uM” value rises from -3.16% to 0.52%.

Going from `CN(C)c1ccnc2sc3c(SCc4ccc(Cl)cc4)ncnc3c12` to `COc1ccc(SCCc2ccc(C)nc2)cc1`, the “% Inhibition @ 10 uM” value falls from 2.6% to -1.76%.

Going from `CCOc1ccc(C=C2C(=O)NC(=O)NC2=O)cc1OC` to `COc1ccc(CCn2c(=O)c(C#N)cc3c(=O)n4cc(C)ccc4nc32)cc1OC`, the “% Inhibition @ 10 uM” value rises from -0.615% to -0.551%.

Going from `COc1cccc(OC)c1C(=O)Nc1ccccc1Cl` to `COc1cc(C2CC(=O)NC3=C2C(=O)CC(c2ccccc2Cl)C3)c(OC)cc1Br` (centres unmarked), the “% Inhibition @ 10 uM” value falls from 0.361% to -3.51%.

Going from `Cc1cnc(NC(=O)C23CC4CC(C2)CC(n2cnc(Br)n2)(C4)C3)s1` to `Nc1nc(C23CC4CC(CC(C4)C2)C3)cs1`, the “% Inhibition @ 10 uM” value falls from -3.05% to -3.55%.

First: Cc1c(N)cc(C(=O)O)cc1[N+](=O)[O-]
Second: COc1ccc2nc(CC(C)(C)CC(=O)O)c[n+]([O-])c2c1
The “% Inhibition @ 10 uM” value of the first is lower: -2.41% for the first, 5.45% for the second.

First: CN1CCC(N(C)Cc2ccc3ccccc3c2)CC1
Second: CCc1ccc(OC(C)C(=O)N(Cc2ccccc2F)C2CCS(=O)(=O)C2)cc1 (centres unmarked)
The “% Inhibition @ 10 uM” value of the first is higher: 0.847% for the first, 0.366% for the second.

First: N#C/C(=C\c1cccc(Br)c1)c1nn(CCO)c(N)c1C#N
Second: CN(C)/C=N/c1c(C#N)cnn1-c1ccccc1
The “% Inhibition @ 10 uM” value of the first is higher: 13.2% for the first, -2.53% for the second.

Compared with `O=C1N/C(=C/c2cccn2-c2ccc(F)cc2)C(=O)N1Cc1ccccc1`, `O=C(Nc1ccc(Cl)cc1)C1CC(=O)N(c2ccc(Oc3ccccc3)cc2)C1` (centres unmarked) is lower in “% Inhibition @ 10 uM” value: 0.161% for the first, -3.85% for the second.

Compared with `CC1=Nc2ncnn2C(c2cccc(O)c2)/C1=C(/O)OCc1ccccc1` (centres unmarked), `CC(=O)Nc1cc(C(=O)O)ccc1NCc1ccccc1` is higher in “% Inhibition @ 10 uM” value: -4.93% for the first, -4.02% for the second.

First: Cc1cc(NC(=O)CSc2nnc(-c3ccc4c(c3)OCCO4)o2)no1
Second: O=C(Cn1ncc2c1-c1ccccc1OC2)Nc1cc(-c2cccc(Cl)c2)no1
The “% Inhibition @ 10 uM” value of the first is higher: 9.59% for the first, -6.07% for the second.

Compared with `CCCc1nc(SC)ncc1C(=O)O`, `COc1cc(SC)ccc1C(=O)N1CCN(c2ccccc2)CC1` is higher in “% Inhibition @ 10 uM” value: -5.12% for the first, 0.983% for the second.

Going from `O=C(N/C(=C/c1ccc(Cl)cc1)c1nc2ccccc2[nH]1)c1ccccc1` to `O=C(Nc1cccc(-c2nc3ccccc3s2)c1)c1ccc(F)c(F)c1`, the “% Inhibition @ 10 uM” value falls from 0.0538% to -2.81%.

Compared with `O=C(Cn1ncn2nc(-c3cccs3)cc2c1=O)NCc1ccccn1`, `Nc1nonc1-c1nc2ccccc2n1CC(=O)NCc1ccco1` is lower in “% Inhibition @ 10 uM” value: -1.08% for the first, -1.11% for the second.

First: O=C(O)CCCCCNc1nc(-c2ccccc2)nc2ccccc12
Second: c1ccc2oc(Cc3nc4ccccc4o3)nc2c1
The “% Inhibition @ 10 uM” value of the first is lower: -6.59% for the first, 1.08% for the second.

First: CC(C)(C)c1ccc(C(=O)N2CCC(C(=O)Nc3c(F)cccc3F)CC2)cc1
Second: Cc1nnc(N2CCC(C(=O)NC(C)c3ccccc3)CC2)c2nn(-c3ccccc3)c(C)c12 (centres unmarked)
The “% Inhibition @ 10 uM” value of the first is higher: 0.931% for the first, -3.24% for the second.

Going from `CN(C(=O)c1ccccc1Cl)C1(C(=O)NC2CCCC2)CCCCC1` to `O=C(CN1N=C(c2ccc(Cl)cc2)CCC1=O)NCCC1=CCCCC1`, the “% Inhibition @ 10 uM” value rises from -9.7% to 3.79%.

Compared with `CCCOc1cc(C)cc2oc(=O)cc(-c3ccccc3)c12`, `Cc1ccc2c(c1)cc1c(=O)n(Cc3ccccc3C)nc(C)n12` is lower in “% Inhibition @ 10 uM” value: -0.339% for the first, -2% for the second.

First: COc1ccc2[nH]c3c(=O)n(CCC(=O)NC4CCC(C)CC4)c(=S)[nH]c3c2c1 (centres unmarked)
Second: COc1ccc(C2C3=C(CC(C)(C)CC3=O)N(CC(=O)O)C3=C2C(=O)CC(C)(C)C3)cc1Cl
The “% Inhibition @ 10 uM” value of the first is lower: -3.95% for the first, 0.214% for the second.

Compared with `CCCC1CCc2c(n(C)c3ccccc3c2=O)O1` (centres unmarked), `CSc1cc(N2CCOCC2)nc(-c2ccccc2Cl)n1` is higher in “% Inhibition @ 10 uM” value: -7.62% for the first, 4.03% for the second.

First: Cc1ccc(NC(=O)CN2CCOCC2)cc1
Second: CC(=O)c1ccc(NC(=O)Cn2nnc3ccccc32)cc1
The “% Inhibition @ 10 uM” value of the first is lower: -4.6% for the first, 0.989% for the second.

Compared with `CC(C)(C)c1cc(Cc2ccccc2)[nH]n1`, `COc1cc(C2c3c(-c4c(C)cc(C)cc4O)n[nH]c3C(=O)N2Cc2ccco2)ccc1O` (centres unmarked) is lower in “% Inhibition @ 10 uM” value: 3.44% for the first, -3.49% for the second.

Going from `COc1cc(C2C3=C(CC(C)(C)CC3=O)OC3=C2C(=O)CC(C)(C)C3)cc(OC)c1O` to `CC1(C)CC(=O)C(/C=N/c2ccc3c(c2)CCC3)=C(O)C1`, the “% Inhibition @ 10 uM” value falls from 7.62% to -1.64%.

First: CCCc1ccc(OCc2ccc(C(=O)N3CCN(c4ccccn4)CC3)o2)c(OC)c1
Second: CCOc1ccc(-c2cc(N)n(S(=O)(=O)c3cccc4nsnc34)n2)cc1
The “% Inhibition @ 10 uM” value of the first is lower: 3.72% for the first, 7.21% for the second.

First: O=C(Nc1ccc(Cl)cc1)c1cc(Br)cc(Br)c1O
Second: COCCNC(=O)c1ccc2c(c1)nc(C)n2-c1ccc(F)cc1F
The “% Inhibition @ 10 uM” value of the first is higher: 4.88% for the first, -0.458% for the second.

In the case of `CCN1CCN(C2CCC(C(C)(C)C)CC2)CC1` (centres unmarked), the “% Inhibition @ 10 uM” value was 1.08%.
